From PMC4336329 (PLoS ONE, 2015)
Hit rate of the full screen: of about 310,000 compounds, about 2,200 (0.71%) showed an effect of 50% or more. Effects have a minus sign here. This is one part of the list.

target: human ether-à-go-go-related gene (hERG) potassium channel (human, UniProt Q12809); assay: primary screen, population patch clamp on CHO cells stably expressing hERG
Sequence (Q12809 whole entry, looked up): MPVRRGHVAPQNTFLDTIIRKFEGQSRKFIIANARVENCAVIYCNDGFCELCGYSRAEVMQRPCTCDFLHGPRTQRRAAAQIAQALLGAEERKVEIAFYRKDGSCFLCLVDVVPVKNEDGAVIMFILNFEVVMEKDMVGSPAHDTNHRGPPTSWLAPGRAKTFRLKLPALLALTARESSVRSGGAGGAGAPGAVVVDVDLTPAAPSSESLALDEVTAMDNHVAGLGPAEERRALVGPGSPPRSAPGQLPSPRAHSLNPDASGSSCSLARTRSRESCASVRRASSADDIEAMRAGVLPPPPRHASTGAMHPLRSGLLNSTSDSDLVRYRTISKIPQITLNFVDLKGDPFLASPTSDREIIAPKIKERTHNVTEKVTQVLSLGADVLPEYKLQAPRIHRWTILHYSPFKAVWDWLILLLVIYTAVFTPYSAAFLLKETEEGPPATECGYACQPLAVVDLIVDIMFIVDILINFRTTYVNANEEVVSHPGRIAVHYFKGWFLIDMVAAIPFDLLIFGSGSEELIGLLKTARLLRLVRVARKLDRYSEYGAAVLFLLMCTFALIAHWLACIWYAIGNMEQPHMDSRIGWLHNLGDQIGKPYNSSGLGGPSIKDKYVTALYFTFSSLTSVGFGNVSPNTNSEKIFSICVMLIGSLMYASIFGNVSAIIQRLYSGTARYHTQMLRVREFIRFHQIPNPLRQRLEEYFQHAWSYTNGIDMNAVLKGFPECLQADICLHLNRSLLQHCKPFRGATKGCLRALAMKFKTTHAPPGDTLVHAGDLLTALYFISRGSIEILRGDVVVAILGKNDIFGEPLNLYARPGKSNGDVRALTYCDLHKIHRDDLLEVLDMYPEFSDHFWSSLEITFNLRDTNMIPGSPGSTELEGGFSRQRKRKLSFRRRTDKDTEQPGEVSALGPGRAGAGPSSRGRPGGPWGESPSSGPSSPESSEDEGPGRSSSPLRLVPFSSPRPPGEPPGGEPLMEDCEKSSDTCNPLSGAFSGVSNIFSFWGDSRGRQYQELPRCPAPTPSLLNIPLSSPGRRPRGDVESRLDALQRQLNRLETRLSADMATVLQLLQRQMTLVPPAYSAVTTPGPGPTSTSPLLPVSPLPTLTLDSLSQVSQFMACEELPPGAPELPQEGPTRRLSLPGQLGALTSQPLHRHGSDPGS

SMILES	hERG current change (%, negative = inhibition) at 1uM
COC(=O)c1cnn2c(C(F)(F)F)cc(-c3ccc(F)cc3)nc12	-4.17%
CCOC(=O)CN(Cc1sccc1C)C(=O)Nc1ccc(OCC)cc1	7.78%
CC1=CC(C)(C)N(C(=O)CSc2nnc(-c3ccc(C)cc3)o2)c2ccc(C)cc21	8.68%
CC(=O)Nc1ccnc(-c2cccnc2)n1	7.56%
C/C=C/C=C/C(=O)OC(C)C(=O)Nc1cc([N+](=O)[O-])ccc1OC (centres unmarked)	3.97%
Cn1c(=O)n(C)c2cc([N+](=O)[O-])c(N3CCN(S(C)(=O)=O)CC3)cc21	15.9%
COCCNc1ccc(N2C(=O)CCCC2=O)cc1[N+](=O)[O-]	15.4%
COCC(C)NC(=O)c1noc2c1CCc1cc(OC)ccc1-2 (centres unmarked)	-2.64%
CN1/C(=C\C(=O)C[n+]2cccc(C(N)=O)c2)C(C)(C)c2ccccc21.[Cl-]	18.9%
COC(=O)c1cc(S(=O)(=O)N(C)C2CCCCC2)oc1C	10.3%
Cc1ccc(C)c(-c2nc3ccc(N)cc3[nH]2)c1	-4.27%
O=C(O)c1ccc(N2C(=O)/C(=C/C=C/c3ccccc3)SC2=S)cc1	4.88%
O=C(Nc1cccc(O)c1)C(Cc1ccccc1)N1C(=O)c2cccc3cccc(c23)C1=O (centres unmarked)	6.05%
Cc1ccc(-c2csc(NC(=O)c3ccc(F)cc3)c2C(=O)O)cc1	16%
Cc1ccc(-c2nc(Nc3ccc(O)cc3)c3ccccc3n2)cc1	11.5%
CCOCCCNC(=O)CN1CCN(S(=O)(=O)c2ccc3c(c2)CCC3)CC1	13.1%
Cc1ccc(CNCC(=O)Nc2ccc(N3CCOCC3)cc2)cc1.O=C(O)C(=O)O	10.5%
O=C1CC(C(F)(F)F)=NN1	15.9%
CC(C)c1ccc(-c2cc(C(=O)NN3CCN(C)CC3)c3ccccc3n2)cc1	10.1%
CS(=O)(=O)c1ccccc1-c1nc(-c2cccc(Cl)c2)no1	5.57%
CCN(CCCNC(=O)CCn1c(=S)[nH]c2cc3c(cc2c1=O)OCO3)c1cccc(C)c1	11.5%
Cc1ccc2cc(C)c3nnc(SCC(=O)NCc4ccco4)n3c2c1	-5.71%

SMILES	hERG current change (%, negative = inhibition) at 1uM
Cc1nnc(SCC(=O)N2CCN(S(=O)(=O)c3ccc(Cl)cc3)CC2)n(N)c1=O	-1.36%
CN(C)S(=O)(=O)N1CCC(c2ccc(F)cc2)C(COc2ccc3c(c2)OCO3)C1 (centres unmarked)	12.4%
Cc1cc(C)c2c(N)c(C(=O)Nc3ccc([N+](=O)[O-])cc3)sc2n1	17.4%
O=C(O)c1cccc(N2CCCCS2(=O)=O)c1	12.5%
OCCC1CN(Cc2cc(F)ccc2-n2cccn2)CCN1C1CCCC1 (centres unmarked)	3.09%
O=C(Cn1cc(C(=O)C2CC2)c2ccccc21)NC1CCCC1	10.9%
O=C(Nc1ccc2ccccc2n1)Nc1ccccc1F	10.3%
CCOCN(C(=O)Cn1cnc2ccccc21)c1c(C)cccc1CC	9.93%
CCCn1c(NC(=O)CN2C(=O)NC3(CCCCC3)C2=O)nc2ccccc21	-7.25%
COc1cc(C2C3=C(CCCC3=O)OC3=C2C(=O)CCC3)ccc1OCC(=O)Nc1ccccc1	14.8%
CCOc1ccc(-n2c(C)cc(C(=O)NS(=O)(=O)c3ccc(C)cc3)c2C)cc1	-3.98%
Cc1ccc2c(c1)nnc1nnc(SCC(=O)O)n12	10.1%
Cc1ccc(NC(=O)CCSc2nnc(-c3ccco3)o2)cc1	9.02%
COC(=O)c1ccc(-n2c(C)cc(C(=O)CSc3cccc[n+]3[O-])c2C)cc1	17.8%
CCCCCCCCC(=O)NCc1ccc(O)c(OC)c1	3.62%
Cc1ccc2c(c1)cc(CN(Cc1ccc3c(c1)OCO3)C(=O)c1ccccc1)c1nnnn12	7.15%
CCCCOC(=O)c1ccc(N=Nc2c(C)c(C#N)c(O)[nH]c2=O)cc1	6.48%
COc1ccc(S(=O)(=O)N2CCCCC2)cc1NC(=O)CCCOc1ccccc1	5.13%
CCC(=O)c1cn(CC(=O)Nc2cc(C)ccc2C)c2ccccc12	11.3%
O=C(CN1CCN(S(=O)(=O)c2ccccc2F)CC1)Nc1ccnn1C1CCCC1	-8.04%
COc1ccc(C(=O)CC(c2ccccc2)S(=O)(=O)c2ccc(C)cc2)cc1 (centres unmarked)	14.7%
CCCCNC(=S)NNC(=O)CCn1cc(C)cn1	12.9%
